Experimental data as given in paper PMC4336329 (PLoS ONE, 2015).
The whole screen tested about 310,000 compounds, of which about 14,000 (4.5%) showed an effect of 50% or more. The effect is printed as a negative number. This is one part of the list.

These compounds were tested against human ether-à-go-go-related gene (hERG) potassium channel (human, UniProt Q12809) (assay: primary screen, population patch clamp on CHO cells stably expressing hERG).
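Further: peak tail current of the secondary pulse compared with the same well before compound.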

human ether-à-go-go-related gene (hERG) potassium channel, sequence (Q12809 whole entry, looked up): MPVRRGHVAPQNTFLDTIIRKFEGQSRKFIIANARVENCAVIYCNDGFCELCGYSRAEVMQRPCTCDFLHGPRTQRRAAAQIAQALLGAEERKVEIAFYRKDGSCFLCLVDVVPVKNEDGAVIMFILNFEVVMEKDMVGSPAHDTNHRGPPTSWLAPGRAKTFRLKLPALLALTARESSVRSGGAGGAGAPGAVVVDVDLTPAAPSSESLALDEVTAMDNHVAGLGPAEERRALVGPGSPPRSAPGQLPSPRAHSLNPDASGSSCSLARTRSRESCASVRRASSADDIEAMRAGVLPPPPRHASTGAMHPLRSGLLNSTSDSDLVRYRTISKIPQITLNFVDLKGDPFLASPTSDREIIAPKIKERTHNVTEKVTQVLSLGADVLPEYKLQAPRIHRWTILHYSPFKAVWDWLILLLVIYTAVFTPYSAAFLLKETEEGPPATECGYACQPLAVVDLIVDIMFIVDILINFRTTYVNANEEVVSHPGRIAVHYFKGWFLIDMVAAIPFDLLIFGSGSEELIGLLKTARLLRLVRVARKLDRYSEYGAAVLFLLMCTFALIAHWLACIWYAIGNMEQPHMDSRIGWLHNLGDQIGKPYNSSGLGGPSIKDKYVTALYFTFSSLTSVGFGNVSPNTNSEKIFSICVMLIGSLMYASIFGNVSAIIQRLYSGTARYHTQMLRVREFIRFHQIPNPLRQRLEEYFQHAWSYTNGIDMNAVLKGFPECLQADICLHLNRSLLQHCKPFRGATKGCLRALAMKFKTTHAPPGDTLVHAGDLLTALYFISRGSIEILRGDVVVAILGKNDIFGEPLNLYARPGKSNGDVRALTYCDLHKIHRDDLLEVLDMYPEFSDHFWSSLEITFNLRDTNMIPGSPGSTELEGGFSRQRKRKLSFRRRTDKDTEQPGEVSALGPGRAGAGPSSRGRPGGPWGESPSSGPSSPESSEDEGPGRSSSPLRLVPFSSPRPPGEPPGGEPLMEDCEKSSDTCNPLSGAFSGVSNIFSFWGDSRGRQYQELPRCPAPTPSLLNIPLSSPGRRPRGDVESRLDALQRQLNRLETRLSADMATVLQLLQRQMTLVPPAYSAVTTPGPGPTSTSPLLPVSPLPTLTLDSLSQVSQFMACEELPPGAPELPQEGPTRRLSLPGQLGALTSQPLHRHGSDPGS

Compound	hERG current change (%, negative = inhibition) at 10uM [%]
CC(=O)/C(=N/Nc1cccc(C)c1)N1CCOCC1.Cl	10.5
CCC(C)N1C(=O)CCC1C(=O)N1CCN(c2ccc(F)cc2)CC1 (stereo not shown)	-28.3
Cc1ccc(C)c(NC(=S)NC(NC(=O)/C=C/c2ccccc2)C(Cl)(Cl)Cl)c1 (stereo not shown)	13.7
CCOC(=O)CSc1nc2cc(OCC)ccc2cc1C#N	-4.45
CCCC(=O)c1ccc(N2CCN(C(=O)c3ccccc3)CC2)c(F)c1	-66.7
COC(=O)C1=CN(CCCN2CCCC2=O)C=C(C(=O)OC)C1c1ccccc1C(F)(F)F	-57.1
COc1ccccc1CC(=O)Nc1cc(Cl)ccc1O	7.68
CN(C(=O)Cc1csc(-c2ccccc2)n1)c1c(N)n(Cc2ccccc2)c(=O)[nH]c1=O	15.7
Cc1ccc(OCc2ccc(C(=O)Nc3nc4ccccc4n3C)o2)c([N+](=O)[O-])c1	22.9
Cc1ccccc1N1CC(C(=O)Nc2nnc(SCc3cccnc3)s2)CC1=O (stereo not shown)	1.55
Cc1ccc(-c2csc(NC(=O)C3CC=CCC3C(=O)O)c2C(=O)OC(C)C)cc1 (stereo not shown)	-7.86
COc1ccc(S(=O)(=O)N2CCN(CC(=O)N3CCc4ccccc4C3)CC2)cc1OC	-18.5
CN(C)C(=O)Oc1ccc(-c2cn3cc(Cl)ccc3n2)cc1	8.92
CCN(CC(=O)Nc1ccc(OC)cc1)C(=O)c1cc(-c2cccs2)nn1-c1ccccc1	-15.4
COCCNC(=O)C(=O)N/N=C(\C)CC(=O)Nc1ccc2c(c1)OCO2	11.9
CC1(C)NC(=O)N(CC(=O)Nc2nc(-c3ccc(F)cc3)cs2)C1=O	-23.9
COc1cccc2c1OC1(C)CC2N(C(=O)c2ccco2)C(=S)N1c1ccc(F)cc1 (stereo not shown)	1.8
COC(C(=O)Nc1ccccc1F)c1ccccc1 (stereo not shown)	9.45
O=C(c1ccccc1Cl)N1CCC(n2cccc2)CC1	5
CCOC(=O)N1CCN(Cc2nc(C3CC3)no2)CC1	13.8
Cc1c(C)c2ccc(OC(C)C(=O)N[C@@H](Cc3c[nH]c4ccccc34)C(=O)O)c(C)c2oc1=O (stereo partly shown)	7.27
CC(=O)O/N=C(/C)c1ncc(C(F)(F)F)cc1N1CCOCC1	16.5

Compound	hERG current change (%, negative = inhibition) at 10uM [%]
Cc1cc(C)cc(NC(=O)CCn2cnc3cc(C)c(C)cc32)c1	-13.9
COc1ccc(/C=N/NC(=O)c2cc(Br)ccc2O)cc1Cn1cc(Cl)cn1	-34.1
O=C(COc1ccc(Cl)cc1)Nc1nc(-c2cccs2)cs1	11
CC12CCC(=O)N1c1ccccc1C(=O)N2c1ccccc1 (stereo not shown)	-9.9
Cc1cc(C)n(-c2ccc(C(=O)Nc3ccccc3N3CCOCC3)cc2)n1	-18.7
COc1ccc(NC(=O)COc2ncnc3ccccc23)cc1S(=O)(=O)N1CCOCC1	19.1
COc1cccc(N2CCN(C(=O)C3CCN(S(=O)(=O)c4ccc5c(c4)CC(C)N5C(C)=O)CC3)CC2)c1 (stereo not shown)	-17.1
Cc1cc(N)n2nc(-c3ccccc3)cc2n1	-6.74
N/C(CN1CCCC1=O)=N\OC(=O)c1ccc(Cl)c(Cl)c1	-22.8
CCCN1C(=O)c2ccccc2NC1c1ccc(C)cc1 (stereo not shown)	-4.35
O=c1[nH]c2ccc(NCc3ccc(OCc4ccccc4Cl)cc3)cc2[nH]1	29.4
CCc1ccc(NC(=O)Cc2cn(C)c3ccccc23)cc1	12.4
CCN(CC(=O)Nc1ccc(NC(C)=O)cc1)C(=O)c1ccc2c(c1)S(=O)(=O)N=C1CCCCCN12	7.78
Cc1c([N+](=O)[O-])c(C(=O)Nc2ccc3c(c2)OCCO3)nn1C	12.2
COc1cc2[nH]c(C(=O)N3CCc4ccccc43)cc2c(OC)c1OC	-3.68
O=C(c1cccc(S(=O)(=O)NCc2ccccc2)c1)N1CCCCC1	-9.43
COc1ccc(CN2CC[C@H]3C=CC[C@@H](C(=O)Nc4ccc(Cl)c(C(F)(F)F)c4)[C@H]3C2=O)cc1OC	-29.6
CN(C)S(=O)(=O)N1CCC(Oc2ccc(C(=O)NCc3cnn(C)c3)cc2)CC1	14.1
CC1C=CCC2C(=O)N(c3ccc(Cl)cc3O)C(=O)C12 (stereo not shown)	-2.47
CC(c1ccccc1)(c1ccccc1)c1ccncc1	-0.938
CCN(CC)CCCNC(=O)C1CCN(c2ncnc3c2sc2cccc(F)c23)CC1	-50.2
